# Test results taken from the supplement of paper PMC10126150.
# Values marked as one replicate rest on one cluster of the flow cell; about a third of the high ones do not repeat.
# Tested on: ATP
# Experiment: switch fluorescence ratio, 500 uM ATP over buffer (Cy3 cluster intensity, sum of 5 cycles each) (fold (ratio)); higher = stronger signal-on switching upon ATP binding; sequences stand for … in TCGTCGGCAGCGTCAGATGTGTATAAGAGACAGTTTTTTTTTTTTTTTTTTTTTTTTT…TC
# Settings: aptamer strand: ATP DNA aptamer (quencher-CACCTGGGGGAGTATTGCGGAGGAAGG + anchor), 100 nM annealed; ATP concentration: 500 uM; one replicate
# Summary of the method: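 Per cluster, summed Cy3 intensity from the target cycles was divided by that from the buffer cycles to give the fluorescence ratio, then averaged per switch-domain sequence. Clusters outside 100-1000 RFU were excluded. The Cy3-labelled switching-strand clusters, on a modified Illumina MiSeq flow-cell, were annealed to 100 nM quencher-labelled ATP aptamer and imaged in selection buffer, then after 15 min with 500 uM ATP at 22 °C, for five cycles with NaOH stripping and re-annealing between them.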
# 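Also: ATP exposure 15 min at 22 °C before imaging.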
row,Sequence,switch fluorescence ratio
1,CGGGTGCACA,0.924
2,CGGGTGCGTA,0.982
3,CGGGTGGTAC,1.03
4,CGGGTGTCAA,1.03
5,CGGGTGTCTC,1.06
6,CGGGTGTGGT,1.03
7,CGGGTGTGT,1.05
8,CGGGTTTGCC,0.959
9,CGGTAAATAG,1.12
10,CGGTACAAAC,1.15
11,CGGTACCTTT,1.01
12,CGGTACGATC,0.998
13,CGGTACGATG,0.982
14,CGGTAGAGTT,1.03
15,CGGTAGATTC,1.02
16,CGGTAGCCCA,0.975
17,CGGTAGCCCT,1
18,CGGTAGCCTG,0.931
19,CGGTAGGAAA,0.993
20,CGGTAGTCTT,0.909
21,CGGTAGTTCT,0.978
22,CGGTATGTGG,1.02
23,CGGTATTCGT,0.96
24,CGGTATTGT,0.935
25,CGGTCAAC,1.04
26,CGGTCAGAT,1

row,Sequence,switch fluorescence ratio
1,CGGTCAGCCC,0.977
2,CGGTCCAGGG,1.2
3,CGGTCCATCG,1.02
4,CGGTCCGCTA,2.11
5,CGGTCCTCGC,1.08
6,CGGTCGAGGG,1.02
7,CGGTCGCGTT,0.96
8,CGGTCGTACT,0.988
9,CGGTCGTGCC,0.962
10,CGGTCTAATG,0.932
11,CGGTCTAGCA,1.02
12,CGGTCTGCGC,1.03
13,CGGTCTTGTA,1
14,CGGTGAAGAT,1.02
15,CGGTGAATAA,1.04
16,CGGTGAGGTT,0.986
17,CGGTGATGTA,1.33
18,CGGTGATTAA,1.02
19,CGGTGCCTA,0.974
20,CGGTGCTTGC,1.04
21,CGGTGGGTCA,0.97
22,CGGTGTCTGT,0.948
23,CGGTGTTAA,0.975
24,CGGTTAAGA,0.997
25,CGGTTAGAAT,0.952
26,CGGTTATGCA,1.03

row,Sequence,switch fluorescence ratio
1,CGGTTCTCAT,0.98
2,CGGTTGCCCA,1.04
3,CGGTTTCGAA,1.01
4,CGGTTTTTCG,0.992
5,CGTAAAAATC,1
6,CGTAAAACCT,1.84
7,CGTAAGATTT,0.994
8,CGTAAGGTCC,1.01
9,CGTAAGTAAG,0.98
10,CGTAATCAAC,1.72
11,CGTAATCGAC,1.76
12,CGTAATTGTG,1.08
13,CGTACAAAAA,1.05
14,CGTACCGAGG,1.06
15,CGTACTGGGT,0.994
16,CGTACTTGTA,1
17,CGTAGAGCAA,3.06
18,CGTAGAGGTC,0.999
19,CGTAGCCAGG,1.19
20,CGTAGGAGTG,1.02
21,CGTAGGTAAG,1.02
22,CGTAGTTTGA,1
23,CGTATCAAGG,1.01
24,CGTATCCATA,1.01
25,CGTATCGTAG,0.956
26,CGTATGATGC,0.925

row,Sequence,switch fluorescence ratio
1,CGTATGCCCT,0.977
2,CGTATGGG,1.03
3,CGTATGGTGA,1.08
4,CGTATGTATT,0.995
5,CGTATTCATG,0.987
6,CGTCAATTTG,1.03
7,CGTCACAAGC,1.3
8,CGTCACGGAG,1.03
9,CGTCACTGAA,1.03
10,CGTCAGTAAA,0.972
11,CGTCAGTCTG,1.02
12,CGTCCAAGTT,0.999
13,CGTCCCATAA,2.29
14,CGTCCCGCGT,1.29
15,CGTCCCTCTC,1.28
16,CGTCCGGGTC,1.73
17,CGTCCGTCCT,0.985
18,CGTCCTCATT,1.38
19,CGTCCTCGAC,1.02
20,CGTCCTTTGG,0.987
21,CGTCGAGATC,0.963
22,CGTCGAGCCG,0.965
23,CGTCGCAGGG,1.07
24,CGTCGCCATT,0.93
25,CGTCGGCGGC,1.06
26,CGTCGGCTTG,1

row,Sequence,switch fluorescence ratio
1,CGTCGGTGCT,0.985
2,CGTCGTTAGC,1.02
3,CGTCGTTCGA,0.989
4,CGTCGTTTAG,1.01
5,CGTCTATTG,0.948
6,CGTCTCTAGC,0.998
7,CGTCTGCCCT,1.01
8,CGTCTGCCGT,1.01
9,CGTCTTTC,1.02
10,CGTCTTTCTG,0.954
11,CGTCTTTGT,0.994
12,CGTGAAACTT,1.01
13,CGTGAAAGGG,0.941
14,CGTGAACGC,1.01
15,CGTGAATAAA,0.979
16,CGTGACAACA,1.04
17,CGTGACACCT,1.04
18,CGTGATACAC,1.27
19,CGTGATCAAA,1
20,CGTGATGTAG,1.01
21,CGTGCACAAG,0.981
22,CGTGCAGTGC,2.29
23,CGTGCCCATC,1.02
24,CGTGCCGAAT,0.992
25,CGTGCCGGTG,1.02
26,CGTGCGCGTA,1.01

row,Sequence,switch fluorescence ratio
1,CGTGGAAGTC,0.955
2,CGTGGGACGG,0.997
3,CGTGGGCGGG,1
4,CGTGGTGCTA,0.962
5,CGTGTCACGC,1.01
6,CGTGTCGAAC,1.05
7,CGTGTCGGTC,0.997
8,CGTGTCTGCT,1.05
9,CGTGTGATGG,0.991
10,CGTGTGGAAT,1.02
11,CGTGTTAATA,1
12,CGTTAACCAT,1.03
13,CGTTAAGGCG,1.03
14,CGTTAATAAT,0.985
15,CGTTACCGTA,1.03
16,CGTTAGAGGC,1.01
17,CGTTAGCGTG,0.992
18,CGTTATACA,1.02
19,CGTTATAGGA,0.989
20,CGTTATGTGG,0.944
21,CGTTCAAATC,1.04
22,CGTTCAACA,0.979
23,CGTTCAAGGC,1.28
24,CGTTCAATTT,1.01
25,CGTTCCTGGG,1.01
26,CGTTCTACAC,1.04

row,Sequence,switch fluorescence ratio
1,CGTTCTTGTG,0.959
2,CGTTGAAGCG,0.963
3,CGTTGCAAAT,1.01
4,CGTTGCCCGG,1.02
5,CGTTGCGACG,0.967
6,CGTTGCGTAG,1.06
7,CGTTGCTTTA,0.956
8,CGTTGGGAC,1.02
9,CGTTGGGTTA,0.969
10,CGTTGTCCTT,0.912
11,CGTTTAAATT,0.931
12,CGTTTAGATG,1.01
13,CGTTTAGGCC,1.02
14,CGTTTAGGGT,1
15,CGTTTCAA,1.02
16,CGTTTCTGAT,1.03
17,CGTTTGAGCA,0.98
18,CGTTTGATGA,1.02
19,CGTTTGCGGT,0.992
20,CGTTTTATC,0.979
21,CTAAAACGGG,1.06
22,CTAAAAGT,0.984
23,CTAAAATAGG,1.05
24,CTAAACACTT,0.997
25,CTAAAGGAAT,1
26,CTAAATACAA,1.03

row,Sequence,switch fluorescence ratio
1,CTAAATACGT,1.07
2,CTAAATTGT,1.01
3,CTAACCCCAG,1.31
4,CTAACCTCTA,1.02
5,CTAACGAGCA,1.15
6,CTAACGGCGC,1.05
7,CTAAGATGCT,0.95
8,CTAAGCAACG,1.06
9,CTAAGCATGA,1.08
10,CTAAGCTG,0.99
11,CTAAGGAGTA,0.992
12,CTAAGGATTG,0.958
13,CTAAGGGTTT,1.01
14,CTAAGTAGGA,0.999
15,CTAAGTGTTA,0.986
16,CTAATAGAGG,1
17,CTAATATGG,0.937
18,CTAATCACGT,1.02
19,CTAATCGTCG,1.06
